Experimental data as given in PubChem BioAssay AID2675 (National Center for Advancing Translational Sciences (NCATS), 2010).
The campaign covered roughly 280,000 compounds. About 100 (0.036%) were called active. This list was built around the results that the source calls inconclusive (neither active nor inactive); the mix of calls is not that of the screen. The call rests on the fitted dose curve; in most records, active means well fitted inhibition curve with a large enough effect in the signal ratio, with a control signal flat (not every such curve was filed as active); inconclusive means small, poorly fitted or top-dose-only effect, or effect the other way, or a change in a side signal; inactive means no such curve, though single readings can be large or run the other way; the % refers to the signal ratio. Where the call is inconclusive, the potency comes from a doubtful curve fit. “Side channel” marks fits to a control or component signal instead of the main read-out.

What follows are compounds tested against Muscleblind-like protein 1 (Homo sapiens) (UniProt Q9NR56) (assay: qHTS Assay for Inhibitors of MBNL1-poly(CUG) RNA binding). Details: TR-FRET MBNL1-His/biotin-(CUG)12 binding, 665/545 ratio; series mostly up to 57.5 µM.
UniProt Q9NR56, sequence (Q9NR56 whole entry, looked up): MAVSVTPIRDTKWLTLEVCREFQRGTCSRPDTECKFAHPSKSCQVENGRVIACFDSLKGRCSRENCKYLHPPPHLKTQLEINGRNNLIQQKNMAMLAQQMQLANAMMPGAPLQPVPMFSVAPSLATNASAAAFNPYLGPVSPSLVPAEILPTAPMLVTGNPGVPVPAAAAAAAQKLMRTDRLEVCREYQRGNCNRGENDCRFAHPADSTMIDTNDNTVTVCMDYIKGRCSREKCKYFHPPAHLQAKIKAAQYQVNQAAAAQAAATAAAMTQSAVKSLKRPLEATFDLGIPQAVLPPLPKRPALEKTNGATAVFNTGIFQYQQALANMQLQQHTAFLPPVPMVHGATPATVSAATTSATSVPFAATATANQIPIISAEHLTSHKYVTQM
Method in brief: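 His-tagged MBNL1 binding to biotinylated (CUG)12 RNA was measured by TR-FRET using terbium anti-His antibody (0.055 ng/ul final) and streptavidin-XL665 (5 nM final). Compounds were titrated 92 nM to 58 uM; 60 min at room temperature.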
Potency means the concentration at half of the fitted maximal effect; tags describe the fitted curve by direction and shape or compound fluorescence and quenching.

| Compound | Potency |
| --- | --- |
| CC(C)COc1ccc(-c2nn(-c3ccccc3)cc2/C=C2/SC(=S)N(CC(=O)O)C2=O)cc1 | inactive |
| O=C(COC(=O)C1CCN(S(=O)(=O)c2cccs2)CC1)NCc1ccc(F)cc1 | inactive |
| CC(C)C(c1nnnn1Cc1ccc(F)cc1)N1CCSCC1 (stereo not given) | inconclusive: 39.8 µM [quencher, side channel, single point] |
| Cc1[nH][nH]c(=O)c1C(c1c(C)[nH][nH]c1=O)c1cn(C)c2ccccc12 | inconclusive: 14.1 µM [quencher, side channel, partial curve] |
| O=C1CC(N2CCCc3ccccc32)C(=O)N1c1ccccc1Cl (stereo not given) | inconclusive: 17.8 µM [quencher, side channel, partial curve] |
| O=C(O)c1cccc2c1C(=O)c1ccccc1-2 | inconclusive: 11.2 µM [quencher, side channel, partial curve] |
| COc1ccc(-c2nc3ccccc3n2OCC(=O)O)cc1 | inactive |
| CCOC(=O)C1=C(c2ccccc2)O/C(=C(\C(=O)OC)C(F)(F)F)S1 | inactive |
| O=C(NCCNC(=O)c1ccccc1F)c1ccco1 | inactive |
| CCC(C)NC(=O)C1CCN(S(=O)(=O)c2cccc3nonc23)CC1 (stereo not given) | inconclusive: 4.47 µM [quencher, side channel, full curve, poor fit] |
| COc1cc(/C=N/Nc2ccccn2)cc(OC)c1O | inconclusive: 20 µM [quencher, side channel, single point] |
| O=C(NNC(=S)NC1CCCCC1)c1cccs1 | inconclusive: 79.4 µM [inhibitor, partial curve] |
| COC(=O)c1ccc(-n2c(C)cc(C(=O)CSc3cccc[n+]3[O-])c2C)cc1 | inactive |
| Cc1ccc(OCCCC(=O)Nc2ccc3c(c2)OCO3)cc1 | inactive |
| CCN(CC)c1c([N+](=O)[O-])c(=O)sc2ccccc12 | inconclusive: 12.6 µM [fluorescent, side channel, partial curve, poor fit] |
| CC(=O)c1ccc(Nc2ccc([N+](=O)[O-])c3nonc23)cc1 | inconclusive: 10 µM [quencher, side channel, partial curve] |
| O=C(CCS(=O)(=O)c1cccc2nonc12)NCCc1ccccc1Cl | inconclusive: 14.1 µM [quencher, partial curve] |
| COc1cc(C(=O)NC(=S)Nc2ccc3c(c2)OCO3)cc(OC)c1OC | inactive |
| O=C(/C=C/c1ccc([N+](=O)[O-])cc1)Nc1ncc([N+](=O)[O-])s1 | inconclusive: 15.8 µM [quencher, side channel, partial curve] |
| COc1ccc(-c2nnc(NC(=O)c3ccc([N+](=O)[O-])o3)o2)c(OC)c1 | inactive |

| Compound | Potency |
| --- | --- |
| CCOC(=O)CN1C(=O)NC2NC(=O)NC21 (stereo not given) | inconclusive: 126 µM [inhibitor, partial curve, poor fit] |
| N#Cc1cc(N)ccc1Sc1ccc(Cl)cc1 | inactive |
| COc1ccc(NC(=O)CSc2nccn2C)c([N+](=O)[O-])c1 | inconclusive: 15.8 µM [quencher, partial curve] |
| CN(C)CCCN1C(=O)C(O)=C(C(=O)c2cccs2)C1c1cccc([N+](=O)[O-])c1 (stereo not given) | inconclusive: 31.6 µM [quencher, side channel, single point] |
| COc1cc2c(cc1OC)/C(=C/C(=O)c1ccc(F)cc1)NCC2 | inconclusive: 39.8 µM [quencher, side channel, single point] |
| CCN1CCN(c2nc(-c3ccccc3)c3ccccc3n2)CC1 | inactive |
| Cc1ccc(C(=O)c2no[n+]([O-])c2C(=O)c2ccc(C)cc2)cc1 | inconclusive: 50.1 µM [inhibitor, partial curve] |
| COc1cc(C(=O)O/N=C(\N)Cc2ccc([N+](=O)[O-])cc2)cc(OC)c1OC | inconclusive: 22.4 µM [quencher, side channel, partial curve] |
| CCCN1CCc2c(sc(NC(=O)c3ccc(S(=O)(=O)N(C)c4ccccc4)cc3)c2C(=O)NC)C1 | inconclusive: 25.1 µM [quencher, side channel, single point] |
| O=S(=O)(Cc1ccccc1)c1cnc2ccccc2n1 | inconclusive: 28.2 µM [quencher, side channel, single point] |
| COc1cccc(/C=C2\SC(=S)N(C(C)C(=O)NC3C=CS(=O)(=O)C3)C2=O)c1 (stereo not given) | inconclusive: 17.8 µM [quencher, side channel, partial curve] |
| COc1ccc(Br)cc1C1Nc2cccc3cccc(c23)N1 | inconclusive: 11.2 µM [quencher, side channel, partial curve] |
| Nc1nn(-c2ccccc2)c(N)c1N=Nc1cccc(F)c1 | inconclusive: 10 µM [quencher, side channel, partial curve] |
| Cc1cc(=O)n2[nH]c(N)c(N=Nc3ccccc3F)c2n1 | inconclusive: 10 µM [quencher, side channel, partial curve] |
| CN(C)CCCNC(=O)/C(=C\c1ccc(-c2cccc([N+](=O)[O-])c2)o1)NC(=O)c1ccccc1 | inconclusive: 7.94 µM [quencher, side channel, partial curve] |
| CCOC(=O)c1c(NC(=S)Nc2cccc(C)c2)sc2c1CC(C)(C)SC2 | inconclusive: 3.98 µM [fluorescent, side channel, single point] |
| COC(=O)c1c(NC(=O)c2nc3ccccc3s2)sc2c1CCN(C(C)=O)C2 | inconclusive: 4.47 µM [quencher, side channel, partial curve] |
| Cn1nc([N+](=O)[O-])nc1Oc1ccccc1N | inconclusive: 14.1 µM [quencher, side channel, partial curve] |
| CCN(CCCc1ccccc1)CCCc1ccccc1 | inconclusive: 79.4 µM [inhibitor, single point] |
| COc1cc(O)oc1C=Nc1ccc(Cl)cc1 | inactive |

| Compound | Potency |
| --- | --- |
| O=C1OCCN/C1=C\C(=O)c1ccccc1 | inconclusive: 39.8 µM [quencher, side channel, single point] |
| CCn1c2ccccc2c2cc(NC(=O)COC(=O)c3cc(OC)c(OC)cc3OC)ccc21 | inactive |
| O=C1C(=O)N(CCN2CCOCC2)C(c2ccccc2F)/C1=C(\O)c1ccc(S(=O)(=O)N2CCOCC2)cc1 (stereo not given) | inconclusive: 28.2 µM [quencher, partial curve] |
| CC(=O)Nc1ccc(O)c(-c2nc3ccccc3s2)c1 | inconclusive: 25.1 µM [fluorescent, side channel, partial curve] |
| COCCNC(=S)N/N=C(\C)c1ccc2cc(OC)ccc2c1 | inconclusive: 17.8 µM [quencher, side channel, partial curve] |
| C/C(CC(=O)Nc1ccc2c(c1)OCCO2)=N\NC(=O)c1ccc([N+](=O)[O-])cc1Cl | inconclusive: 8.91 µM [quencher, side channel, partial curve] |
| Cc1cc(N/C=C/C(=O)c2cccs2)ccc1F | inconclusive: 28.2 µM [quencher, side channel, single point] |
| COC(=O)Nc1ccc(SCC(=O)c2cccc([N+](=O)[O-])c2)cc1 | inconclusive: 25.1 µM [quencher, side channel, single point] |
| Cc1ccc(S(=O)(=O)Nc2cccc(N(C)S(C)(=O)=O)c2)cc1[N+](=O)[O-] | inconclusive: 7.94 µM [quencher, side channel, full curve] |
| CC(C)(C)OC(=O)NCCC(=O)N/N=C/c1ccc2nccnc2c1 | inconclusive: 12.6 µM [quencher, side channel, partial curve] |
| COC(=O)c1ccc(CSc2nnc3c(Cl)cc(Cl)cn23)o1 | inconclusive: 11.2 µM [quencher, side channel, partial curve] |
| Cc1nc(C(=O)N(C)C)nn1-c1ccc([N+](=O)[O-])cc1 | inconclusive: 12.6 µM [quencher, side channel, partial curve] |
| CCN1CCN(S(=O)(=O)c2ccc(C(=O)Nc3sc4c(c3C(N)=O)CCN(CC)C4)cc2)CC1 | inconclusive: 28.2 µM [quencher, side channel, partial curve] |
| COc1cccc(CNC(=O)c2ccc(N3CCOCC3)c([N+](=O)[O-])c2)c1 | inconclusive: 15.8 µM [quencher, partial curve] |
| O=C(N/N=C/c1ccc(-n2ccnc2)cc1)c1cccs1 | inconclusive: 3.16 µM [quencher, side channel, full curve] |
| Cc1cc(Cl)ccc1OCC(=O)OCC(=O)Nc1ccc(F)c([N+](=O)[O-])c1 | inconclusive: 28.2 µM [quencher, side channel, single point] |
| Cc1cccc(N2C(=O)c3ccc(C(=O)Nc4cccc(C(=O)O)c4)cc3C2=O)c1 | inconclusive: 12.6 µM [quencher, side channel, partial curve] |
| COc1cc(/C=C2\SC(=S)N(NC(=O)c3ccncc3)C2=O)ccc1O | inconclusive: 8.91 µM [quencher, side channel, partial curve] |
| Cc1ccc(Oc2nccc(-c3ccc(Cl)cc3)n2)cc1 | inconclusive: 39.8 µM [quencher, side channel, single point] |
| COc1cccc(NC(=O)CCc2c(C)nc3nc(CNC(=O)c4cccc(F)c4)nn3c2C)c1 | inactive |
